According to PubChem BioAssay AID924 (National Center for Advancing Translational Sciences (NCATS), 2007):
The whole screen tested about 130,000 compounds, of which about 1,200 (0.92%) were called active. Inconclusive means that the source gave no clear call. Such entries were picked first, then a sample of the others. Calls come from the whole dose curve; as a rule, active = well fitted cell-killing curve with a large enough effect; inconclusive = small, poorly fitted or top-dose-only effect; inactive = no such curve, though single readings can be large or run the other way. Where the call is inconclusive, the potency comes from a doubtful curve fit.

Assay: qHTS Screen for Compounds that Selectively Target Cancer Cells with p53 Mutations: Cytotoxicity of p53ts Cells at the Permissive Temperature; note: nearly all actives have a fitted effect of over 55% in size;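 for activity change, negative = cytotoxicity: 0% = DMSO and -100% = full killing by reference compound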
Conditions: H1299-p53A138V at 32C, ATP luminescence viability, 24 h; activity change, negative = cytotoxicity: at 46.1 µM (top of the series)
How it was run: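 ATP-content luminescence (ATPlite) read-out after 24 h compound exposure at 32C in H1299-p53A138V cells (600/well). Tested up to 46 uM. Normalized to DMSO (0%) and 100 uM tamoxifen (100% killing); Hill-fit AC50.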
Potency is the fitted concentration of half-maximal effect; tags give direction and shape of the fitted curve.

Row | Compound | Potency | activity change, negative = cytotoxicity
1 | COCC(C)NC(=O)CCS(=O)(=O)c1nc(-c2ccc(OC)cc2)cc(C(F)(F)F)n1 (stereo not given) | inconclusive: 31.6 µM [cytotoxic, single point] | 
2 | CCCCNC(=O)c1ccc2c(=O)n(Cc3ccc(OC)cc3)c(=O)[nH]c2c1 | inactive | 
3 | Cc1cc(C)c2c(N)c(C(=O)Nc3nccs3)sc2n1 | active: 0.794 µM | 
4 | O=S(=O)(NCCc1csc2nc(-c3ccccc3)nn12)c1cc(F)ccc1F | inactive | 
5 | Cc1ccc(NC(=O)c2ccccc2O)cc1 | active: 14.1 µM | 
6 | CCOC(=O)C1CCN(Cc2ccc(O)c3ncccc23)CC1 | inconclusive: 31.6 µM [cytotoxic, single point] | 
7 | O=C(COC(=O)C1CC1)c1c[nH]c2ccccc12 | inactive | 
8 | CCc1ccc(S(=O)(=O)Nc2ccc3c(c2)n(C)c(=O)c(=O)n3C)cc1 | inactive | 
9 | Cc1cc(N)c2cc(NC(=O)Nc3ccc4nc(C)cc(N)c4c3)ccc2n1 |  | inactive: -10.5% [at 9.22 µM]
10 | CSc1cccc(NC(=O)Nc2ccccc2OCc2cc(=O)n3cc(C)ccc3n2)c1 | inconclusive: 10 µM [cytotoxic, partial curve] | 
11 | Cc1n[nH]c(C)c1N1C(=O)c2cccc3c(Br)ccc(c23)C1=O | inconclusive: 25.1 µM [cytotoxic, partial curve, poor fit] | 
12 | O=C(Nc1ccc2nc(C3CC3)n(Cc3ccc(F)cc3)c(=O)c2c1)c1ccco1 | inconclusive: 15.8 µM [cytotoxic, single point] | 
13 | Cc1cc(C)c2c(n1)SCCN2C(=O)Nc1ccc(C(=O)Nc2cc(Cl)ccc2C)cc1 | inactive | 
14 | COc1ccc(S(=O)(=O)Nc2cccc(-c3ccc(N4CCCCCC4)nn3)c2)cc1 | inconclusive: 20 µM [cytotoxic, partial curve] | 
15 | CN(C)C(=O)c1ccc(-c2nc(Nc3ccncc3)c3ccccc3n2)cc1 | inconclusive: 10 µM [cytotoxic, partial curve] | 
16 | COc1ccc(OCC(=O)Nc2ccc(O)c(-c3nc4ccccc4s3)c2)cc1 | inconclusive: 31.6 µM [cytotoxic, single point] | 
17 | CCOc1ccccc1NC(=O)c1sc2nc(-c3ccc(OC)cc3)ccc2c1N | active: 6.31 µM | 
18 | COc1ccc(CC(=O)Nc2c(C(=O)Nc3ccc(F)cc3)oc3ccccc23)cc1OC | inconclusive: 12.6 µM [cytotoxic, single point] | 
19 | O=C(c1cc2c(s1)-c1ccccc1OC2)N1CCCC1 | inconclusive: 10 µM [cytotoxic, partial curve] | 
20 | Cc1ccccc1OCc1ccc(-c2nc(C#N)c(N3CCN(C)CC3)o2)o1 | inconclusive: 3.16 µM [cytotoxic, full curve, poor fit] | 
21 | CCOc1ccc(-c2cc(C(=O)N3CCN(C)CC3)c3ccccc3n2)cc1 | active: 2.51 µM | 
22 | CCOc1ccccc1CNC(=O)CCc1cn(Cc2ccc(Cl)cc2)c2ccccc12 | inactive | 
23 | O=C(Nc1ccc2c(c1)N(C1CCCC1)C(=O)c1ccccc1S2)c1cccc(F)c1 | inconclusive: 3.98 µM [cytotoxic, full curve, poor fit] | 

Row | Compound | Potency | activity change, negative = cytotoxicity
24 | O=C(CSc1nc2cc(Cl)ccc2s1)N1CCN(C(=O)c2ccco2)CC1 | inactive | 
25 | O=C1[C@H]2[C@H]3[C@H](O)[C@H](O)C/C(=N/OC[C@@H](O)COCc4ccco4)[C@@H]3CC[C@@H]2C(=O)N1Cc1ccc2c(c1)OCO2 |  | inactive: -4.02% [at 9.22 µM]
26 | CCCOc1ccc(C2c3c(oc4cc(C)c(C)cc4c3=O)C(=O)N2CCCN(C)C)cc1 (stereo not given) | inactive | 
27 | CN(C)c1ccc(C(=O)c2ccc(O)cc2O)cc1 | inconclusive: 17.8 µM [cytotoxic, partial curve, poor fit] | 
28 | COc1cc(-c2ccc(N=Nc3ccc4c(S(=O)(=O)O)cc(S(=O)(=O)O)c(N)c4c3O)c(OC)c2)ccc1N=Nc1ccc2c(S(=O)(=O)O)cc(S(=O)(=O)O)c(N)c2c1O | inconclusive: 12.6 µM [cytotoxic, full curve] | 
29 | N#C/C(=C\c1ccc(-c2ccc(F)cc2F)o1)c1nc2ccccc2[nH]1 | active: 15.8 µM | 
30 | CCOc1cccc(CNc2ccc(O)cc2)c1OCc1ccccc1Cl | inconclusive: 35.5 µM [cytotoxic, partial curve, poor fit] | 
31 | C=CC(=O)c1ccc2ccccc2c1 | active: 12.6 µM | 
32 | CCOC(=O)CCc1c(C)c2c(C)nn(-c3ccccc3)c2[nH]c1=O | inconclusive: 0.0562 µM [cytotoxic, full curve] | 
33 | CCc1ccc2occ(CC(=O)Nc3c(C(=O)Nc4ccc(Cl)cc4)oc4ccccc34)c2c1 | inactive | 
34 | COc1ccc(NC(=O)/C(C#N)=C/c2ccc(C)o2)cc1 | inconclusive: 10 µM [cytotoxic, partial curve] | 
35 | COc1ccc(-n2c(=O)c3sc4ccccc4c3n(CC(=O)N3CCCC3)c2=O)cc1 | inactive | 
36 | COc1ccc(C(=O)N2CCN(C(=O)COc3ccc(Br)cc3)CC2)cc1OC | inconclusive: 31.6 µM [cytotoxic, single point] | 
37 | COCCNc1cc(N2CCN(C3CCCCC3)CC2)c2noc3c2c1C(=O)c1ccccc1-3 | inactive | 
38 | CC(CN(C)C)NC(=O)c1ccc(-n2c(=O)c(=O)[nH]c3ccccc32)cc1 (stereo not given) | inactive | 
39 | CC(=O)c1cccc(NC(=O)c2sc3nc4c(cc3c2N)CCCC4)c1 | inconclusive: 10 µM [cytotoxic, partial curve] | 
40 | CCCCC(CC)CN1CN(CC(CC)CCCC)CC(C)(N)C1 (stereo not given) | inactive | 
41 | COc1ccc(-n2ncc3c(N4CCCc5ccccc54)ncnc32)cc1 | active: 10 µM | 
42 | Cc1ccc(N2C(=O)c3n[nH]c(C)c3C2c2ccc(C(C)C)cc2)cc1 (stereo not given) | inconclusive: 31.6 µM [cytotoxic, single point] | 
43 | COc1ccc(CCNC(=O)Cn2c(=O)c3cccn3c3ccccc32)cc1OC | inactive | 
44 | CC(=O)Nc1c(C)nn(-c2ccccc2)c1N1CCC(C(=O)Nc2cccc(C(F)(F)F)c2)CC1 | inactive | 
45 | O=C(CSC1=NCCS1)Nc1nc2c(s1)CCCC2 | inconclusive: 12.6 µM [cytotoxic, single point] | 
